We go through five substances from PMC4292585.

The chains behind the UniProt entries cited, without tags or fusion partners.
UniProt P17096: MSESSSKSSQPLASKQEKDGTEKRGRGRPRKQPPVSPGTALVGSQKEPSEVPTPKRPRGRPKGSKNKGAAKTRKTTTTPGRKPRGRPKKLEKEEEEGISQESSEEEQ
UniProt Q13562: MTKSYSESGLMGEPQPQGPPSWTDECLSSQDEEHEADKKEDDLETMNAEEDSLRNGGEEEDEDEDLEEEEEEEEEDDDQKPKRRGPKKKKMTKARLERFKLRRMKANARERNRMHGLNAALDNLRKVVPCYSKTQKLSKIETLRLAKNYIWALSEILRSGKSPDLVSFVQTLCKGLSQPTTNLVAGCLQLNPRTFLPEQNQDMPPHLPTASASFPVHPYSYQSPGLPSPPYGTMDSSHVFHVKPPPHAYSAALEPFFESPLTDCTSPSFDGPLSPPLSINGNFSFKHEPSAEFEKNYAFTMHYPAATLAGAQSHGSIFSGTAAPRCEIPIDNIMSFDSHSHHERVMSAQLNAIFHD
UniProt P52945: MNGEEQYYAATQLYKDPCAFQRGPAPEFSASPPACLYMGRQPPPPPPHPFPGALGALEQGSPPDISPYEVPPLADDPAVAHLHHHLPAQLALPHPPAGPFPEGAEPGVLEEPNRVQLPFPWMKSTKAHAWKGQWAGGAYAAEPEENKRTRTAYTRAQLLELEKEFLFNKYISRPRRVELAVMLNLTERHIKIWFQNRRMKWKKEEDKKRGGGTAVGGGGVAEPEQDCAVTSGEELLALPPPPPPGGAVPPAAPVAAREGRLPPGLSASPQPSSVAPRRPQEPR
UniProt D3ZNT6: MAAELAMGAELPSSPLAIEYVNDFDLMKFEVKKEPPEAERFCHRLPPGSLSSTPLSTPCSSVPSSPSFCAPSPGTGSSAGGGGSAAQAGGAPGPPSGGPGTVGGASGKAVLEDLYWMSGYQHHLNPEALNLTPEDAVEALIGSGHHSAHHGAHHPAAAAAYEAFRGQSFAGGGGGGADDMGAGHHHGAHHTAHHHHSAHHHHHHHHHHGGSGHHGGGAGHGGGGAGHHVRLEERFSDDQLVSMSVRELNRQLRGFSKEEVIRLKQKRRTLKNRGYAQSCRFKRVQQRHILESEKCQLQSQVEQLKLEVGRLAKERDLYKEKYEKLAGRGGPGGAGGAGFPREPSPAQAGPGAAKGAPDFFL
UniProt P52947: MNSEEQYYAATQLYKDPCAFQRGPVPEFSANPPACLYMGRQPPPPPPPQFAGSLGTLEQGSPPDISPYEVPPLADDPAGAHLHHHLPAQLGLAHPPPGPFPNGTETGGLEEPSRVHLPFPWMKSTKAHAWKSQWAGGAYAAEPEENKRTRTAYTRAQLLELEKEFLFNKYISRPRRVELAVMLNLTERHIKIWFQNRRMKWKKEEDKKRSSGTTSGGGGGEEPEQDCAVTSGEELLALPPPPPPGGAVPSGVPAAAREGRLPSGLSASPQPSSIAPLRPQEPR
UniProt Q8NHW3: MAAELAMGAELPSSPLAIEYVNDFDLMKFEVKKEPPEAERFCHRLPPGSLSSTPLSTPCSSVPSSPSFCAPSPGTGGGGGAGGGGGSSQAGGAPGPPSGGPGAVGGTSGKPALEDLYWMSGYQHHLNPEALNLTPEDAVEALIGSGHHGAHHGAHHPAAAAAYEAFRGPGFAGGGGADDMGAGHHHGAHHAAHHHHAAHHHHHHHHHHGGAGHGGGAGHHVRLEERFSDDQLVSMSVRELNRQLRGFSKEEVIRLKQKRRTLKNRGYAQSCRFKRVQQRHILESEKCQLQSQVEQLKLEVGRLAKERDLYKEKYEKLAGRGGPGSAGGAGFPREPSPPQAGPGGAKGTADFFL

Assay [1] addresses Glutathione S-transferase (GST)-tagged human HMGA1 (human) (UniProt P17096). Nature of the assay: pull-down; 35S-labeled proteins retained on GST-HMGA1 or GST affinity resin, in the absence of DNA; SDS-PAGE; only the target purified.
The target of assay [2] is T1, HMGA1, endogenous in INS-1 nuclear extract (rat (endogenous in INS-1)) (UniProt Q8K585).
T1 sequence: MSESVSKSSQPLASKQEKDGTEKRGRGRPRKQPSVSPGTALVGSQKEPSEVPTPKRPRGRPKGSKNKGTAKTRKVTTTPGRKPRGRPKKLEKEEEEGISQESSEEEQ
Nature of the assay: co-IP; anti-HMGA1 polyclonal antibody coupled to protein A-Sepharose beads; INS-1 nuclear extract (500 μg), 3 h at 4°C; washed in NETN buffer (0.1% NP-40, 150 mM NaCl, 1 mM EDTA, 50 mM Tris-HCl pH 8.0); immunoblot with anti-PDX-1 or anti-MafA.

Results are given in words; binding and its absence hold for the method and conditions named. Binding seen in cells or lysates may run through a third protein. Some results given as binding are weak or reduced against the parent protein; the word gives no strength.

In the case of 35S-NeuroD (from UniProt Q13562 1-356), in assay [1], the binding entry is reported as “no binding”. Consider “Human 35S-labeled PDX-1 (pancreatic and duodenal homeobox factor-1) (from UniProt P52945 1-283)”, for which, in assay [1], the binding entry is “binds”. Take “MafA, endogenous in INS-1 nuclear extract (from UniProt D3ZNT6 1-361)”: the binding entry in assay [2] is recorded as “binds”. On the same count and under the same terms, for “PDX-1, endogenous in INS-1 nuclear extract (from UniProt P52947 1-283)” the value was “binds”.

Take “Human 35S-labeled MafA (V-maf musculoaponeurotic fibrosarcoma oncogene homolog A) (from UniProt Q8NHW3 1-353)”: in assay [1], the binding result was “binds”.
